No constants are given. Whether binding was seen depends on the method and setting. For some assays here: In cells and extracts the contact can be indirect. Some entries that bind do so weakly or less than the wild type. Tags and fused reporters may be left off the sequences shown.

Assay [1] deals with T1, CLAMP^1–153 (GAL4 fusion for Y2H) (D. melanogaster) (UniProt Q9V9N4).
T1 sequence: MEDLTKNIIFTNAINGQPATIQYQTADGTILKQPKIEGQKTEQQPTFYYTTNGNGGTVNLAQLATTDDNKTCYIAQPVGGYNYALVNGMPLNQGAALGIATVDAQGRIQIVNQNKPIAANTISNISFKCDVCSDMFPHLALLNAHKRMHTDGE
Nature of the assay: two-hybrid; GAL4 DNA-binding domain (pGBT9) and activation domain (pGAD424) fusions in yeast strain pJ69-4A; growth on selective media without tryptophan, leucine, histidine, or adenine, compared after 2-3 days; 30 °C.

Assay [2] deals with T2, GST-tagged CLAMP^1–113 (D. melanogaster) (UniProt Q9V9N4).
T2 sequence: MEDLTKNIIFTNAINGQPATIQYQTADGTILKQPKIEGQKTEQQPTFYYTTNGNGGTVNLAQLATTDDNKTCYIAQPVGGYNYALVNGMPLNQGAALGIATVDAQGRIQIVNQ
The experiment in a line: pull-down; GST-fused and 6xHis-thioredoxin-fused CLAMP derivatives co-expressed in BL21; lysate on glutathione agarose in buffer C (20 mM Tris pH 7.5, 150 mM NaCl, 10 mM MgCl2, 0.1 mM ZnCl2, 0.1% NP40, 10% glycerol, 1 mM DTT), 4 °C, washes with 500 mM NaCl; SDS-PAGE, Coomassie.

Assay [3] concerns the target CLAMP^87–153 (purified, tag cleaved) (D. melanogaster) (UniProt Q9V9N4). The experiment in a line: SAXS; in solution, BM29 BioSAXS beamline (ESRF); molecular weight from extrapolated I0; CLAMP 1-153 at 2.3 mg/mL, CLAMP 1-113 at 1.0 and 7.0 mg/mL, CLAMP 87-153 at 2.5 and 10.0 mg/mL; both purified.

B1: CLAMP^1–127 (GAL4 fusion for Y2H) (domain or fragment, UniProt Q9V9N4 1-127)
chain: MEDLTKNIIFTNAINGQPATIQYQTADGTILKQPKIEGQKTEQQPTFYYTTNGNGGTVNLAQLATTDDNKTCYIAQPVGGYNYALVNGMPLNQGAALGIATVDAQGRIQIVNQNKPIAANTISNISF
Regarding B1, in assay [1], the binding result was “binds”.

B2: CLAMP^1–153 (GAL4 fusion for Y2H) (domain or fragment, UniProt Q9V9N4 1-153)
chain: T1 sequence
Take B2: the binding entry in assay [1] is recorded as “binds”.

B3: 6xHis-thioredoxin-tagged CLAMP^1–91 (domain or fragment, UniProt Q9V9N4 1-91)
chain: MEDLTKNIIFTNAINGQPATIQYQTADGTILKQPKIEGQKTEQQPTFYYTTNGNGGTVNLAQLATTDDNKTCYIAQPVGGYNYALVNGMPL
For B3, in assay [2], the binding result is “binds”.

B4: CLAMP^87–153 (purified, tag cleaved) (domain or fragment, UniProt Q9V9N4 87-153)
chain: NGMPLNQGAALGIATVDAQGRIQIVNQNKPIAANTISNISFKCDVCSDMFPHLALLNAHKRMHTDGE
Regarding B4, in assay [3], the binding result was “no binding (tested: 2.5 and 10.0 mg/mL)”.

B5: 6xHis-thioredoxin-tagged CLAMP^41–113 (domain or fragment, UniProt Q9V9N4 41-113)
chain: TEQQPTFYYTTNGNGGTVNLAQLATTDDNKTCYIAQPVGGYNYALVNGMPLNQGAALGIATVDAQGRIQIVNQ
Regarding B5, the binding result in assay [2] is listed as “binds”.
